# Measurements taken from the supplement of paper PMC8728848.
# Some of the results follow.
# Legend:
# Assay in all cases: glycan array binding signal (z-score within array); higher = stronger binding
# Settings in all cases: glycan notation: IUPAC condensed, linker removed
# [1] = target: Fuc(a1-2)[GalNAc(a1-3)]Gal(b1-4)GlcNAc(b1-3)Gal(b1-4)GlcNAc
# Method in brief: (§1)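 Glycan array data were curated from 3228 arrays in the Consortium for Functional Glycomics database and kept only where the protein sequence was available. Glycan names were converted to IUPAC-condensed notation, and columns mapping to the same glycan were averaged. The binding signal is a within-array Z-score, averaged across arrays of the same protein sequence at different concentrations or buffers and across linkers. Negative Z-scores can be read as non-binding.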
# [2] = target: Fuc(a1-2)[GalNAc(a1-3)]Gal(b1-4)GlcNAc(b1-3)Gal(b1-4)GlcNAc(b1-3)Gal(b1-4)GlcNAc
# Method in brief: as §1
# [3] = target: Fuc(a1-2)[GalNAc(a1-3)]Gal(b1-4)GlcNAc(b1-3)GalNAc
# Method in brief: as §1
# [4] = target: Fuc(a1-2)[GalNAc(a1-3)]Gal(b1-4)[Fuc(a1-3)]GlcNAc
# Method in brief: as §1
# [5] = target: Fuc(a1-2)[GalNAc(a1-3)]Gal(b1-4)[Fuc(a1-3)]GlcNAc(b1-3)GalNAc
# Method in brief: as §1
# [6] = target: Fuc(a1-2)[GalNAc(a1-4)]Gal(b1-4)GlcNAc
# Method in brief: as §1
# [7] = target: Fuc(a1-2)[GalNAc(b1-3)]Gal
# Method in brief: as §1
# Fuc(a1-3)GlcNAc = target: Fuc(a1-3)GlcNAc
# Method in brief: as §1
# [8] = target: Fuc(a1-3)[Gal(b1-4)]Glc6S
# Method in brief: as §1
# [9] = target: Fuc(a1-3)[Gal(b1-4)]GlcNAc
# Method in brief: as §1
# [10] = target: Fuc(a1-3)[Gal(b1-4)]GlcNAc(b1-2)Man
# Method in brief: as §1
# [11] = target: Fuc(a1-3)[Gal(b1-4)]GlcNAc(b1-2)Man(a1-3)[Fuc(a1-3)[Gal(b1-4)]GlcNAc(b1-2)Man(a1-6)]Man(b1-4)GlcNAc(b1-4)GlcNAc
# Method in brief: as §1
# [12] = target: Fuc(a1-3)[Gal(b1-4)]GlcNAc(b1-2)Man(a1-3)[Fuc(a1-3)[Gal(b1-4)]GlcNAc(b1-2)Man(a1-6)]Man(b1-4)GlcNAc(b1-4)[Fuc(a1-6)]GlcNAc
# Method in brief: as §1
# [13] = target: Fuc(a1-3)[Gal(b1-4)]GlcNAc(b1-3)Gal(b1-3)[Fuc(a1-4)]GlcNAc
# Method in brief: as §1
# [14] = target: Fuc(a1-3)[Gal(b1-4)]GlcNAc(b1-3)GalNAc
# Method in brief: as §1
# [15] = target: Fuc(a1-3)[Gal(b1-4)]GlcNAc(b1-4)Gal(b1-4)[Fuc(a1-3)]GlcNAc
# Method in brief: as §1
# [16] = target: Fuc(a1-3)[Gal(b1-4)]GlcNAc(b1-4)Gal(b1-4)[Fuc(a1-3)]GlcNAc(b1-4)Gal(b1-4)[Fuc(a1-3)]GlcNAc
# Method in brief: as §1
# [17] = target: Fuc(a1-3)[Gal(b1-4)]GlcNAc(b1-6)GalNAc
# Method in brief: as §1
# [18] = target: Fuc(a1-3)[Gal(b1-4)]GlcNAc(b1-6)[Gal(b1-3)GlcNAc(b1-3)]Gal(b1-4)Glc
# Method in brief: as §1
# [19] = target: Fuc(a1-3)[Gal(b1-4)]GlcNAc(b1-6)[Neu5Ac(a2-3)Gal(b1-3)]GalNAc
# Method in brief: as §1
# [20] = target: Fuc(a1-3)[Gal(b1-4)]GlcNAc6S
# Method in brief: as §1
# [21] = target: Fuc(a1-3)[Gal3S(b1-4)]GlcNAc
# Method in brief: as §1
# [22] = target: Fuc(a1-3)[Gal3S(b1-4)]GlcNAc6S
# Method in brief: as §1
# [23] = target: Fuc(a1-3)[GalNAc(b1-4)]GlcNAc
# Method in brief: as §1
# [24] = target: Fuc(a1-3)[GalNAc(b1-4)]GlcNAc6S
# Method in brief: as §1
# [25] = target: Fuc(a1-3)[GalNAc3S(b1-4)]GlcNAc
# Method in brief: as §1
# Fuc(a1-4)GlcNAc = target: Fuc(a1-4)GlcNAc
# Method in brief: as §1
# Fuc(b1-3)GlcNAc = target: Fuc(b1-3)GlcNAc
# Method in brief: as §1
# Gal(a1-2)Gal = target: Gal(a1-2)Gal
# Method in brief: as §1
# Gal(a1-3)Gal = target: Gal(a1-3)Gal
# Method in brief: as §1
# Gal(a1-3)Gal(b1-3)GlcNAc = target: Gal(a1-3)Gal(b1-3)GlcNAc
# Method in brief: as §1
# [26] = target: Gal(a1-3)Gal(b1-3)GlcNAc(b1-2)Man(a1-3)[Gal(a1-3)Gal(b1-3)GlcNAc(b1-2)Man(a1-6)]Man(b1-4)GlcNAc(b1-4)GlcNAc
# Method in brief: as §1
# [27] = target: Gal(a1-3)Gal(b1-3)GlcNAc(b1-3)GalNAc
# Method in brief: as §1
# [28] = target: Gal(a1-3)Gal(b1-3)GlcNAc(b1-6)GalNAc
# Method in brief: as §1
# [29] = target: Gal(a1-3)Gal(b1-3)[Fuc(a1-4)]GlcNAc(b1-2)Man(a1-3)[Gal(a1-3)Gal(b1-3)[Fuc(a1-4)]GlcNAc(b1-2)Man(a1-6)]Man(b1-4)GlcNAc(b1-4)GlcNAc
# Method in brief: as §1
# Gal(a1-3)Gal(b1-4)Glc = target: Gal(a1-3)Gal(b1-4)Glc
# Method in brief: as §1
# Gal(a1-3)Gal(b1-4)GlcNAc = target: Gal(a1-3)Gal(b1-4)GlcNAc
# Method in brief: as §1
# [30] = target: Gal(a1-3)Gal(b1-4)GlcNAc(b1-3)GalNAc
# Method in brief: as §1
# [31] = target: Gal(a1-3)Gal(b1-4)GlcNAc(b1-6)GalNAc
# Method in brief: as §1
# [32] = target: Gal(a1-3)Gal(b1-4)[Fuc(a1-3)]GlcNAc
# Method in brief: as §1
# [33] = target: Gal(a1-3)Gal(b1-4)[Fuc(a1-3)]GlcNAc(b1-2)Man(a1-3)[Gal(a1-3)Gal(b1-4)[Fuc(a1-3)]GlcNAc(b1-2)Man(a1-6)]Man(b1-4)GlcNAc(b1-4)GlcNAc
# Method in brief: as §1
# Gal(a1-3)GalNAc = target: Gal(a1-3)GalNAc
# Method in brief: as §1
# [34] = target: Gal(a1-3)[Gal(a1-4)]Gal(b1-4)GlcNAc
# Method in brief: as §1
# [35] = target: Gal(a1-4)Gal(b1-3)GlcNAc(b1-2)Man(a1-3)[Gal(a1-4)Gal(b1-3)GlcNAc(b1-2)Man(a1-6)]Man(b1-4)GlcNAc(b1-4)GlcNAc
# Method in brief: as §1
# Gal(a1-4)Gal(b1-4)Glc = target: Gal(a1-4)Gal(b1-4)Glc
# Method in brief: as §1
binder,measurement,setting,value
CCL1 (Coprinopsis cinerea) (protein) MDTQAKPPAGRYVIYNRVLSPNGEKLALTYPGYQREALTLTPLHHSANQIWILNNWDATTSSLTPETARNTQVGWGSGNVPIVLPPGNYVWTLASSAGGYIIQDGGKTVYWNAGEAVANTKVSIGGDNGLQARWIFERV,glycan array binding signal (z-score),[1],-0.161
same,glycan array binding signal (z-score),[2],-0.073
same,glycan array binding signal (z-score),[3],-0.106
same,glycan array binding signal (z-score),[4],-0.128
same,glycan array binding signal (z-score),[5],0.174
same,glycan array binding signal (z-score),[6],-0.144
same,glycan array binding signal (z-score),[7],-0.128
same,glycan array binding signal (z-score),Fuc(a1-3)GlcNAc,-0.156
same,glycan array binding signal (z-score),[8],-0.158
same,glycan array binding signal (z-score),[9],0.754
same,glycan array binding signal (z-score),[10],0.141
same,glycan array binding signal (z-score),[11],0.237
same,glycan array binding signal (z-score),[12],-0.134
same,glycan array binding signal (z-score),[13],1.7
same,glycan array binding signal (z-score),[14],-0.158
same,glycan array binding signal (z-score),[15],1.02
same,glycan array binding signal (z-score),[16],1.68
same,glycan array binding signal (z-score),[17],0.078
same,glycan array binding signal (z-score),[18],0.53
same,glycan array binding signal (z-score),[19],0.424
same,glycan array binding signal (z-score),[20],0.449
same,glycan array binding signal (z-score),[21],-0.072
same,glycan array binding signal (z-score),[22],-0.071
same,glycan array binding signal (z-score),[23],8.48
same,glycan array binding signal (z-score),[24],13.6
same,glycan array binding signal (z-score),[25],7.46
same,glycan array binding signal (z-score),Fuc(a1-4)GlcNAc,-0.148
same,glycan array binding signal (z-score),Fuc(b1-3)GlcNAc,-0.146
same,glycan array binding signal (z-score),Gal(a1-2)Gal,-0.144
same,glycan array binding signal (z-score),Gal(a1-3)Gal,-0.174
same,glycan array binding signal (z-score),Gal(a1-3)Gal(b1-3)GlcNAc,-0.144
same,glycan array binding signal (z-score),[26],-0.12
same,glycan array binding signal (z-score),[27],-0.163
same,glycan array binding signal (z-score),[28],-0.131
same,glycan array binding signal (z-score),[29],-0.081
same,glycan array binding signal (z-score),Gal(a1-3)Gal(b1-4)Glc,-0.151
same,glycan array binding signal (z-score),Gal(a1-3)Gal(b1-4)GlcNAc,-0.163
same,glycan array binding signal (z-score),[30],-0.149
same,glycan array binding signal (z-score),[31],-0.164
same,glycan array binding signal (z-score),[32],1.11
same,glycan array binding signal (z-score),[33],0.527
same,glycan array binding signal (z-score),Gal(a1-3)GalNAc,-0.151
same,glycan array binding signal (z-score),[34],-0.143
same,glycan array binding signal (z-score),[35],-0.153
same,glycan array binding signal (z-score),Gal(a1-4)Gal(b1-4)Glc,-0.154
